Results taken from article PMC12090182, “Repurposing of the RIPK1-Selective Benzo[1,4]oxazepin-4-one Scaffold for the Development of a Type III LIMK1/2 Inhibitor” (ACS Chemical Biology, 2025).

Experiments:
GCN2(Kin.Dom.2,S808G) [1] = target: T1, GCN2(Kin.Dom.2,S808G) (Homo sapiens, UniProt Q9P2K8, S808G); assay: biochemical; type: binding; conditions: read-out: Percent Control
GCN2(Kin.Dom.2,S808G) [2] = target: T1, GCN2(Kin.Dom.2,S808G); assay: biochemical; type: binding; conditions: compound concentration 100 nM; Entrez EIF2AK4; read-out: Percent Control

CN1C(=O)[C@@H](N2CCc3c(nn(Cc4ccccc4)c3C(N)=O)C2=O)COc2cc(Cl)ccc21 [Compound 10, (S)-2-benzyl-6-(8-chloro-5-methyl-4-oxo-2,3,4,5-tetrahydrobenzo[b][1,4]oxazepin-3-yl)-7-oxo-4,5,6,7-tetrahydro-2H-pyrazolo[3,4-c]pyridine-3-carboxamide]
remaining activity at 1 µM (GCN2(Kin.Dom.2,S808G) [1]): 100% | remaining activity at 0.1 µM (GCN2(Kin.Dom.2,S808G) [2]): 100%
